The text below walks through data of the supplement of paper PMC12423691.

The other results are listed elsewhere or left out. Binding of human transcription factors and regulators to the viral nucleoprotein by AlphaScreen, crude cell-free proteins, amounts not normalised, one pass. Fold of the Venus control; higher = more signal. No active / inactive call. Single-pass screen; sequences are the whole Swiss-Prot entries looked up by name.

The labels stand for the following.
B1: SLC26A3, P40879 (protein)
chain: MIEPFGNQYIVARPVYSTNAFEENHKKTGRHHKTFLDHLKVCCSCSPQKAKRIVLSLFPIASWLPAYRLKEWLLSDIVSGISTGIVAVLQGLAFALLVDIPPVYGLYASFFPAIIYLFFGTSRHISVGPFPILSMMVGLAVSGAVSKAVPDRNATTLGLPNNSNNSSLLDDERVRVAAAASVTVLSGIIQLAFGILRIGFVVIYLSESLISGFTTAAAVHVLVSQLKFIFQLTVPSHTDPVSIFKVLYSVFSQIEKTNIADLVTALIVLLVVSIVKEINQRFKDKLPVPIPIEFIMTVIAAGVSYGCDFKNRFKVAVVGDMNPGFQPPITPDVETFQNTVGDCFGIAMVAFAVAFSVASVYSLKYDYPLDGNQELIALGLGNIVCGVFRGFAGSTALSRSAVQESTGGKTQIAGLIGAIIVLIVVLAIGFLLAPLQKSVLAALALGNLKGMLMQFAEIGRLWRKDKYDCLIWIMTFIFTIVLGLGLGLAASVAFQLLTIVFRTQFPKCSTLANIGRTNIYKNKKDYYDMYEPEGVKIFRCPSPIYFANIGFFRRKLIDAVGFSPLRILRKRNKALRKIRKLQKQGLLQVTPKGFICTVDTIKDSDEELDNNQIEVLDQPINTTDLPFHIDWNDDLPLNIEVPKISLHSLILDFSAVSFLDVSSVRGLKSILQEFIRIKVDVYIVGTDDDFIEKLNRYEFFDGEVKSSIFFLTIHDAVLHILMKKDYSTSKFNPSQEKDGKIDFTINTNGGLRNRVYEVPVETKF
B2: TP63, Q9H3D4 (protein)
chain: MNFETSRCATLQYCPDPYIQRFVETPAHFSWKESYYRSTMSQSTQTNEFLSPEVFQHIWDFLEQPICSVQPIDLNFVDEPSEDGATNKIEISMDCIRMQDSDLSDPMWPQYTNLGLLNSMDQQIQNGSSSTSPYNTDHAQNSVTAPSPYAQPSSTFDALSPSPAIPSNTDYPGPHSFDVSFQQSSTAKSATWTYSTELKKLYCQIAKTCPIQIKVMTPPPQGAVIRAMPVYKKAEHVTEVVKRCPNHELSREFNEGQIAPPSHLIRVEGNSHAQYVEDPITGRQSVLVPYEPPQVGTEFTTVLYNFMCNSSCVGGMNRRPILIIVTLETRDGQVLGRRCFEARICACPGRDRKADEDSIRKQQVSDSTKNGDGTKRPFRQNTHGIQMTSIKKRRSPDDELLYLPVRGRETYEMLLKIKESLELMQYLPQHTIETYRQQQQQQHQHLLQKQTSIQSPSSYGNSSPPLNKMNSMNKLPSVSQLINPQQRNALTPTTIPDGMGANIPMMGTHMPMAGDMNGLSPTQALPPPLSMPSTSHCTPPPPYPTDCSIVSFLARLGCSSCLDYFTTQGLTTIYQIEHYSMDDLASLKIPEQFRHAIWKGILDHRQLHEFSSPSHLLRTPSSASTVSVGSSETRGERVIDAVRFTLRQTISFPPRDEWNDFNFDMDARRNKQQRIKEEGE
B3: FOXB1, Q99853 (protein)
chain: MPRPGRNTYSDQKPPYSYISLTAMAIQSSPEKMLPLSEIYKFIMDRFPYYRENTQRWQNSLRHNLSFNDCFIKIPRRPDQPGKGSFWALHPSCGDMFENGSFLRRRKRFKVLKSDHLAPSKPADAAQYLQQQAKLRLSALAASGTHLPQMPAAAYNLGGVAQPSGFKHPFAIENIIAREYKMPGGLAFSAMQPVPAAYPLPNQLTTMGSSLGTGWPHVYGSAGMIDSATPISMASGDYSAYGVPLKPLCHAAGQTLPAIPVPIKPTPAAVPALPALPAPIPTLLSNSPPSLSPTSSQTATSQSSPATPSETLTSPASALHSVAVH
B4: ETV1, P50549 (protein)
chain: MDGFYDQQVPYMVTNSQRGRNCNEKPTNVRKRKFINRDLAHDSEELFQDLSQLQETWLAEAQVPDNDEQFVPDYQAESLAFHGLPLKIKKEPHSPCSEISSACSQEQPFKFSYGEKCLYNVSAYDQKPQVGMRPSNPPTPSSTPVSPLHHASPNSTHTPKPDRAFPAHLPPSQSIPDSSYPMDHRFRRQLSEPCNSFPPLPTMPREGRPMYQRQMSEPNIPFPPQGFKQEYHDPVYEHNTMVGSAASQSFPPPLMIKQEPRDFAYDSEVPSCHSIYMRQEGFLAHPSRTEGCMFEKGPRQFYDDTCVVPEKFDGDIKQEPGMYREGPTYQRRGSLQLWQFLVALLDDPSNSHFIAWTGRGMEFKLIEPEEVARRWGIQKNRPAMNYDKLSRSLRYYYEKGIMQKVAGERYVYKFVCDPEALFSMAFPDNQRPLLKTDMERHINEEDTVPLSHFDESMAYMPEGGCCNPHPYNEGYVY
B5: SIVA1, O15304 (protein)
chain: MPKRSCPFADVAPLQLKVRVSQRELSRGVCAERYSQEVFEKTKRLLFLGAQAYLDHVWDEGCAVVHLPESPKPGPTGAPRAARGQMLIGPDGRLIRSLGQASEADPSGVASIACSSCVRAVDGKAVCGQCERALCGQCVRTCWGCGSVACTLCGLVDCSDMYEKVLCTSCAMFET
B6: NKX6-2, Q9C056 (protein)
chain: MDTNRPGAFVLSSAPLAALHNMAEMKTSLFPYALQGPAGFKAPALGGLGAQLPLGTPHGISDILGRPVGAAGGGLLGGLPRLNGLASSAGVYFGPAAAVARGYPKPLAELPGRPPIFWPGVVQGAPWRDPRLAGPAPAGGVLDKDGKKKHSRPTFSGQQIFALEKTFEQTKYLAGPERARLAYSLGMTESQVKVWFQNRRTKWRKRHAVEMASAKKKQDSDAEKLKVGGSDAEDDDEYNRPLDPNSDDEKITRLLKKHKPSNLALVSPCGGGAGDAL
B7: ONECUT1, Q9UBC0 (protein)
chain: MNAQLTMEAIGELHGVSHEPVPAPADLLGGSPHARSSVAHRGSHLPPAHPRSMGMASLLDGGSGGGDYHHHHRAPEHSLAGPLHPTMTMACETPPGMSMPTTYTTLTPLQPLPPISTVSDKFPHHHHHHHHHHHPHHHQRLAGNVSGSFTLMRDERGLASMNNLYTPYHKDVAGMGQSLSPLSSSGLGSIHNSQQGLPHYAHPGAAMPTDKMLTPNGFEAHHPAMLGRHGEQHLTPTSAGMVPINGLPPHHPHAHLNAQGHGQLLGTAREPNPSVTGAQVSNGSNSGQMEEINTKEVAQRITTELKRYSIPQAIFAQRVLCRSQGTLSDLLRNPKPWSKLKSGRETFRRMWKWLQEPEFQRMSALRLAACKRKEQEHGKDRGNTPKKPRLVFTDVQRRTLHAIFKENKRPSKELQITISQQLGLELSTVSNFFMNARRRSLDKWQDEGSSNSGNSSSSSSTCTKA
B8: TFDP2, Q14188 (protein)
chain: MTAKNVGLTSTNAEVRGFIDQNLSPTKGNISFVAFPVSNTNSPTKILPKTLGPINVNVGPQMIISTPQRLTSSGSVLIGSPYTPAPAMVTQTHIAEATGWVPGDRKRARKFIDSDFSESKRSKKGDKNGKGLRHFSMKVCEKVQRKGTTSYNEVADELVSEFTNSNNHLAADSAYDQKNIRRRVYDALNVLMAMNIISKEKKEIKWIGLPTNSAQECQNLEIEKQRRIERIKQKRAQLQELLLQQIAFKNLVQRNRQNEQQNQGPPALNSTIQLPFIIINTSRKTVIDCSISSDKFEYLFNFDNTFEIHDDIEVLKRMGMSFGLESGKCSLEDLKLAKSLVPKALEGYITDISTGPSWLNQGLLLNSTQSVSNLDLTTGATLPQSSVNQGLCLDAEVALATGQFLAPNSHQSSSAASHCSESRGETPCSFNDEDEEDDEEDSSSPE
B9: SREBF2, Q12772 (protein)
chain: MDDSGELGGLETMETLTELGDELTLGDIDEMLQFVSNQVGEFPDLFSEQLCSSFPGSGGSGSSSGSSGSSSSSSNGRGSSSGAVDPSVQRSFTQVTLPSFSPSAASPQAPTLQVKVSPTSVPTTPRATPILQPRPQPQPQPQTQLQQQTVMITPTFSTTPQTRIIQQPLIYQNAATSFQVLQPQVQSLVTSSQVQPVTIQQQVQTVQAQRVLTQTANGTLQTLAPATVQTVAAPQVQQVPVLVQPQIIKTDSLVLTTLKTDGSPVMAAVQNPALTALTTPIQTAALQVPTLVGSSGTILTTMPVMMGQEKVPIKQVPGGVKQLEPPKEGERRTTHNIIEKRYRSSINDKIIELKDLVMGTDAKMHKSGVLRKAIDYIKYLQQVNHKLRQENMVLKLANQKNKLLKGIDLGSLVDNEVDLKIEDFNQNVLLMSPPASDSGSQAGFSPYSIDSEPGSPLLDDAKVKDEPDSPPVALGMVDRSRILLCVLTFLCLSFNPLTSLLQWGGAHDSDQHPHSGSGRSVLSFESGSGGWFDWMMPTLLLWLVNGVIVLSVFVKLLVHGEPVIRPHSRSSVTFWRHRKQADLDLARGDFAAAAGNLQTCLAVLGRALPTSRLDLACSLSWNVIRYSLQKLRLVRWLLKKVFQCRRATPATEAGFEDEAKTSARDAALAYHRLHQLHITGKLPAGSACSDVHMALCAVNLAECAEEKIPPSTLVEIHLTAAMGLKTRCGGKLGFLASYFLSRAQSLCGPEHSAVPDSLRWLCHPLGQKFFMERSWSVKSAAKESLYCAQRNPADPIAQVHQAFCKNLLERAIESLVKPQAKKKAGDQEEESCEFSSALEYLKLLHSFVDSVGVMSPPLSRSSVLKSALGPDIICRWWTSAITVAISWLQGDDAAVRSHFTKVERIPKALEVTESPLVKAIFHACRAMHASLPGKADGQQSSFCHCERASGHLWSSLNVSGATSDPALNHVVQLLTCDLLLSLRTALWQKQASASQAVGETYHASGAELAGFQRDLGSLRRLAHSFRPAYRKVFLHEATVRLMAGASPTRTHQLLEHSLRRRTTQSTKHGEVDAWPGQRERATAILLACRHLPLSFLSSPGQRAVLLAEAARTLEKVGDRRSCNDCQQMIVKLGGGTAIAAS

The experiment deals with nucleoprotein N of Crimean-Congo hemorrhagic fever virus. Nature of the experiment: AlphaScreen luminescence signal relative to Venus negative control (fold); higher = stronger binding to CCHFV N. On the procedure:
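AlphaScreen binding of cell-free made, FLAG-GST-tagged human transcription factors and regulators (crude translation products) to biotinylated N protein; signal as fold of the FLAG-GST-Venus control. One pass.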
Regarding B1, the AlphaScreen luminescence signal was 4.93.

In turn, B2 gave an AlphaScreen luminescence signal of 2.19.

The molecule B3 registered an AlphaScreen luminescence signal of 2.7.

Take B4: the AlphaScreen luminescence signal was determined as 1.53.

B5 yielded an AlphaScreen luminescence signal of 2.05.

As for B6, the AlphaScreen luminescence signal is 2.88.

Molecule B7 displayed an AlphaScreen luminescence signal of 1.58.

Consider B8, for which the AlphaScreen luminescence signal was found to be 1.95.

The molecule B9 registered an AlphaScreen luminescence signal of 2.19.
